# From the supplement of paper PMC3334620
# Whole data set: some 33,000 sequences, median “E-score (-0.5 to 0.5)” near -0.012, cut for the highest 2% near 0.27. The list shows a part of the results.
# Molecular target: T1, Vhr1 (UniProt P40522)
# T1 sequence: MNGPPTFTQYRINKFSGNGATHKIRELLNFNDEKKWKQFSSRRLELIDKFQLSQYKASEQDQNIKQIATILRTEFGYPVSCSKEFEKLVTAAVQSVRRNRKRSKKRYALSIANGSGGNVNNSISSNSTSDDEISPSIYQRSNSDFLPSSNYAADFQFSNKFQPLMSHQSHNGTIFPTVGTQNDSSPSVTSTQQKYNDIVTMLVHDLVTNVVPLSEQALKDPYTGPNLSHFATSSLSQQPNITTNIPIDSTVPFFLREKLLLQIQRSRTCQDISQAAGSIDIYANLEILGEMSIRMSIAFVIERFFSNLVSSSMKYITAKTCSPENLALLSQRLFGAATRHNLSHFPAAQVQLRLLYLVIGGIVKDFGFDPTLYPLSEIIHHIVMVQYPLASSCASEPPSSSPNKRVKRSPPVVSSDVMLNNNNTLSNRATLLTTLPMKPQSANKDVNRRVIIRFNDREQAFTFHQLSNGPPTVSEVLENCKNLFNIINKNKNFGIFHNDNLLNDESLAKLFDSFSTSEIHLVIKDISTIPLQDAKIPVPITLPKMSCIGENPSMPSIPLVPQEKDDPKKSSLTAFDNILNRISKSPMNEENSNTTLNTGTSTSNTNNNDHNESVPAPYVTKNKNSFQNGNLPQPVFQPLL
# Assay: PBM E-score (8-mer binding enrichment) (E-score (-0.5 to 0.5)); higher = stronger / more preferred TF binding; most listed sequences are background and not binding sites
# Details: protein concentration: 200 nM; construct: GST-full length
# Procedure, shortened: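 Yeast transcription factors carrying a GST tag, as full-length proteins or DNA-binding domains, were produced by PURExpress in vitro transcription/translation. About 100-200 nM protein was applied to universal all-10-mer Agilent arrays, double-stranded by primer extension on fresh or once-stripped slides. Bound protein was detected with fluorescent anti-GST, and scans were normalised with masliner. The Universal PBM Analysis Suite gave each ungapped eight-base word, pooled with its reverse complement, an E-score, a modified Wilcoxon-Mann-Whitney statistic.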
row,Sequence,PBM E-score
1,TACCCTCA,-0.0115
2,GCCCAGTA,-0.156
3,AAGGTACC,-0.208
4,GTTACAAA,0.0546
5,CCAGCGCA,-0.139
6,ACTTGTAC,0.0588
7,CCTCTTCC,-0.215
8,GACGAACC,-0.141
9,ATGGTAGC,0.0267
10,GAGGCACA,0.00806
11,AGGAGGCG,-0.207
12,TAAGCGTA,-0.173
13,CGCGGTTC,0.161
14,TGACCCCA,0.11
15,GGCTAGCC,-0.274
16,ACGGGCTG,0.043
17,AGTTAACG,-0.121
18,TCGGTAGA,-0.118
19,CAGTCTAA,-0.0775
20,GTCGTTTA,-0.0687
21,AGATGATG,0.229
22,ACCCCAGT,-0.0732

row,Sequence,PBM E-score
1,CTTCCATA,-0.214
2,CAGGAAGG,-0.239
3,CAGGTAGA,-0.0896
4,GGCCGTTA,-0.0938
5,GGGGGGCA,-0.108
6,ACCGGCAC,0.0357
7,ACAGTGAG,0.116
8,CTTAGACC,-0.253
9,AATTACCT,-0.114
10,GGGCATTA,-0.205
11,CTTAGCTC,-0.0797
12,CCTTCCAC,-0.207
13,GCTCACTA,0.125
14,AAAATCTT,-0.316
15,AGAGGGAG,-0.106
16,GGAGTTAC,-0.00502
17,GACGATTA,-0.0227
18,CCGACCCG,-0.0837
19,GAAGACGC,-0.0862
20,CACCCCGG,0.0623
21,AATCACAC,0.316
22,AGGTTACT,0.0309

row,Sequence,PBM E-score
1,CAATATCA,0.0826
2,GTCAGAAC,-0.0558
3,CAGCGGAA,-0.0684
4,CTCAACAG,-0.13
5,CTATCTTA,-0.0603
6,GCTAAATA,-0.157
7,CCGGGTGC,-0.0457
8,CAAATGTA,0.0556
9,CCTGCTAC,0.0687
10,ACTCCGCA,0.0593
11,ACAGAACA,0.183
12,ATCACAGC,0.182
13,AATGGGCC,-0.0587
14,CCCTGATC,-0.0802
15,CTGTCATA,0.0334
16,ACCGGTCG,-0.119
17,CCCATCAC,0.198
18,CGAGAAGC,-0.115
19,GCGGAGTA,0.0654
20,ACCCGGGA,0.133
21,CACAATCG,0.153
22,GAAACAGC,-0.0915

row,Sequence,PBM E-score
1,CCGCTAAC,-0.104
2,TAGGCGCA,-0.0195
3,CCATGGCA,-0.018
4,GAGGGGAC,0.191
5,CGATTAAC,0.0474
6,CATTACCG,-0.103
7,ACAGACCG,0.183
8,ACACATCA,0.0839
9,CCCGTCTA,0.00077
10,AGGATTCG,0.0805
11,AGCTTCGA,-0.127
12,CATGAGTA,0.225
13,TCTGGACA,-0.0655
14,ACTGTCTC,0.0275
15,ACTTAAGT,-0.295
16,ACAGAGCG,-0.0964
17,ATTGTGCG,-0.0287
18,GCCCATGA,0.262
19,GCACGCCC,-0.0287
20,GAGTTTGC,0.0457
